{"source": "patent US20090118188A1", "about": "(ACCELERON PHARMA, published 2009)", "binders": {"B1": {"name": "ActRIIa-hFc (Fc fusion)", "chain": "not shown"}}, "target": "T1, GDF-11 (UniProt O95390 299-407)", "T1 sequence (looked up)": "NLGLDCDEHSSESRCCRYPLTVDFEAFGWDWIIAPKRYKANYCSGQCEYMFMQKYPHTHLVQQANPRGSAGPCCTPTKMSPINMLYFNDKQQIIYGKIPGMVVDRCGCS", "assay": "cell-based or functional assay", "data": [{"binder": "B1", "values": [{"measurement": "GDF-11 signaling in the A-204 Reporter Gene Assay (pGL3(CAGA)12 luciferase), IC50", "result": "~200", "unit": "pM"}]}]}
